Results from PubChem BioAssay (NCATS).
Where “and” joins values, the source holds several entries; their conditions need not be identical. Equal entries are not always repeated. Inconclusive means that the source gave no clear call. Such entries were picked first, then a sample of the others. For some assays here: A potency beside an inconclusive call is a rough fit, not a confirmed value. Calls of active or inactive are those of the source. Unless noted, calls follow the shape of the dose curve; as a rule, active = well fitted curve in the direction sought with a large enough effect; inconclusive = small, poorly fitted or top-dose-only effect, or another doubt; inactive = no such curve, though single readings can be large; an effect the other way counts as inactive or inconclusive.

Experiments:
[1] = Primary qHTS to identify inhibitors of SARS-CoV-2 cell entry (AID 1645846; calls by dose curve; also: nearly all actives have a fitted effect of over 45% in size); conditions: SARS-CoV-2 pseudovirus cell entry assay, luminescence; series mostly up to 57.1 µM
Summary of the method: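 Using luciferase-reporting pseudoviruses carrying Wuhan-Hu-1 spike, the screen tracks entry into stably ACE2-expressing cells over 48 hr. Activity is expressed relative to spike particles versus particles lacking any fusion protein.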

[2] = Primary qHTS for inhibitors of nuclear receptor binding SET domain protein 2 (NSD2) in an isogenic RCH-ACV NSD2 p.E1099K mutant (9B) (AID 1645876); conditions: RCH-ACV NSD2 E1099K (9B) viability, CellTiter-Glo, 72 h; series mostly up to 44.9 µM; also: nearly all actives have a fitted effect of over 70% in size
[3] = Primary fluorescence-based thiol-reactive (MSTI) qHTS assay for identification of artifact compounds. (AID 1845221); conditions: MSTI thiol-reactivity probe, 1 h; series mostly up to 53.8 µM;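 also: thiol-reactive compounds lower the probe fluorescence signal; nearly all actives have a fitted effect of over 65% in size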
Summary of the method: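 Compounds were incubated 1 h at room temperature in the dark with the MSTI probe (4 uM) in PBS pH 7.4, 2% DMSO. Signals were normalized between Acetyl-MSTI and MSTI.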

[4] = Primary qHTS for inhibitors of nuclear receptor binding SET domain protein 2 (NSD2) in an RCH-ACV wild type WT cells (2C) (AID 1645877); conditions: RCH-ACV (leukaemia line) NSD2 WT (2C) viability, CellTiter-Glo, 72 h; series mostly up to 44.9 µM; also: nearly all actives have a fitted effect of over 70% in size
[5] = target: Rap guanine nucleotide exchange factor 3 (Homo sapiens) (UniProt O95398); assay: Confirmatory qHTS for antagonist of cAMP-regulated guanine nucleotide exchange factor 3 (EPAC1) (AID 1645880); conditions: EPAC1 Rap1B-BODIPY-GDP exchange, fluorescence; series mostly up to 115 µM; also: nearly all actives have a fitted effect of over 55% in size
Summary of the method: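 Released BODIPY-GDP fluoresces less than Rap1-bound BODIPY-GDP; the signal is followed at 480/540 nm at 5-min intervals over 30 min, after 5 min at room temperature. Reactions contain 100 nM EPAC1, 250 nM RAP1B-BODIPY-GDP and 50 uM GDP; results are normalized to ATA and DMSO.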

[6] = target: Rap guanine nucleotide exchange factor 4 (Homo sapiens) (UniProt Q8WZA2); assay: Confirmatory qHTS for agonist of cAMP-regulated guanine nucleotide exchange factor 4 (EPAC2) (AID 1645884); conditions: EPAC2 GEF activity, Rap1B-BODIPY-GDP fluorescence; series mostly up to 154 µM;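 also: nucleotide exchange releases bodipy-GDP from Rap1 and this lowers its fluorescence; nearly all actives have a fitted effect of over 65% in size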
[7] = NCATS anti-infectives library activity on HEK293 viability as a counter-qHTS vs the C. elegans viability qHTS (AID 1745854); conditions: HEK293 viability counter-screen; series mostly up to 41.8 µM
Summary of the method: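 Cytotoxicity counter-screen to a worm viability qHTS: CellTiter-Glo luminescence read 10 min after reagent addition. Compounds (final up to 41.7 uM, a 1:5 dilution series) incubated 24 hr at 37C with 1,500 HEK293 cells per well; digitonin control.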

[8] = target: Phospholipid hydroperoxide glutathione peroxidase GPX4 (Homo sapiens) (UniProt P36969); assay: Primary qHTS Assay for Inhibitors of Recombinant Selenoprotein Glutathione Peroxidase 4 (GPX4) (AID 1845192); conditions: recombinant GPX4, GR-coupled NADPH fluorescence, 15 min; series mostly up to 50 µM; also: nearly all actives have a fitted effect of over 65% in size
Summary of the method: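 qHTS, GR-coupled: GPX4 200 nM + cpd 30 min RT → GSH 1 mM, NADPH 0.5 mM, GR 100 nM → CHP 0.5 mM start; fluor 340/450 at t0 and t15 min; no-enzyme wells as control.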

[9] = target: Glutathione peroxidase 1 (Homo sapiens) (UniProt P07203); assay: Primary qHTS Assay for Inhibitors of Recombinant Selenoprotein Glutathione Peroxidase 1 (GPX1) (AID 1845191); conditions: recombinant GPX1, GR-coupled NADPH fluorescence, 15 min; series mostly up to 48.8 µM; also: nearly all actives have a fitted effect of over 65% in size
Summary of the method: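 GPX1 10 nM, GR 100 nM, GSH 1 mM, NADPH 0.5 mM, CHP 0.5 mM (final). 30-min cpd preincubation, RT. Ex340/Em450 read t=0, t=15 min.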

[10] = target: Luciferin 4-monooxygenase (Photinus pyralis) (UniProt P08659); assay: Primary firefly luciferase (FLuc) qHTS assay for identification of artifact compounds. (AID 1845220); conditions: purified firefly luciferase, luminescence, 5 min; series mostly up to 54.1 µM; also: nearly all actives have a fitted effect of over 60% in size
Summary of the method: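 qHTS, 15 min compound preincubation with substrate (10 uM luciferin, 10 uM ATP) at RT, then 10 nM FLuc; 5 min; luminescence; % inhibition vs no-enzyme/DMSO controls, 4-parameter Hill fit.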
Potency is read from the fitted curve at half-maximal effect; tags tell the direction and shape of the fitted curve.

Sequence of UniProt P07203 (P07203 whole entry, looked up): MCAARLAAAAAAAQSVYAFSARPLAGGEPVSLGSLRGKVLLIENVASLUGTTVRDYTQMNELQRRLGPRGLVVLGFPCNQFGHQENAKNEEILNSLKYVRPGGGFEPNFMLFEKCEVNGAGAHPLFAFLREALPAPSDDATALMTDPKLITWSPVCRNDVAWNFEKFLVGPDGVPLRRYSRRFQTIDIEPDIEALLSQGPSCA
Sequence of UniProt P36969 (P36969 whole entry, looked up): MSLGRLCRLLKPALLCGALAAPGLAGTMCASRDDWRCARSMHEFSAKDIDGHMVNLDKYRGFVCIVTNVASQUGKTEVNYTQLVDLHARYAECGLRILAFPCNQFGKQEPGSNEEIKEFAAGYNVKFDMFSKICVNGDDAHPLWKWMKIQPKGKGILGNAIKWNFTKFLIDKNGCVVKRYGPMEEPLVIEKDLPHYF
Sequence of UniProt O95398 (O95398 whole entry, looked up): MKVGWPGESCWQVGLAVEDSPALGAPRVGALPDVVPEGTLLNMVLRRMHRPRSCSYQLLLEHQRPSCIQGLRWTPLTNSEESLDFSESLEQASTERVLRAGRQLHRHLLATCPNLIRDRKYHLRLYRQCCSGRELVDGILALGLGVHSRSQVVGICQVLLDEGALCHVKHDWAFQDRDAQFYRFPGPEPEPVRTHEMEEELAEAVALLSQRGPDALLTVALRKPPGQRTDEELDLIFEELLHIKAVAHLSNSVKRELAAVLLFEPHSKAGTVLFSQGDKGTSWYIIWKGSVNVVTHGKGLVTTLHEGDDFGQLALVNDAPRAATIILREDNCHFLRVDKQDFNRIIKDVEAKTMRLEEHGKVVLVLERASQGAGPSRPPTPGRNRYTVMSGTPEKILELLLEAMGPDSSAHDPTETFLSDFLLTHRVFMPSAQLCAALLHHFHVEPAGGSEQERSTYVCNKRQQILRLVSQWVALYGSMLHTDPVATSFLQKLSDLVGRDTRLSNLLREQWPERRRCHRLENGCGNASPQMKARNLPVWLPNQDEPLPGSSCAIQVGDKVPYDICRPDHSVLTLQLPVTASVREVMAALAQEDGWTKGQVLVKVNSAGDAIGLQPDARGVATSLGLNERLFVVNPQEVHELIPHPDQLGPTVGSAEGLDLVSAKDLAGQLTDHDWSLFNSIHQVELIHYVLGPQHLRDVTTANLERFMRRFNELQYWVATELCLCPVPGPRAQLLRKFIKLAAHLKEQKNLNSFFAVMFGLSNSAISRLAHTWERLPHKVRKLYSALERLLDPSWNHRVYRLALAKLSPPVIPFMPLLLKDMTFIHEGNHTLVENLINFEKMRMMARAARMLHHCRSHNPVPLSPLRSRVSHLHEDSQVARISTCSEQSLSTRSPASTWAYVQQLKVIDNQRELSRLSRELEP
Sequence of UniProt Q8WZA2 (Q8WZA2 whole entry, looked up): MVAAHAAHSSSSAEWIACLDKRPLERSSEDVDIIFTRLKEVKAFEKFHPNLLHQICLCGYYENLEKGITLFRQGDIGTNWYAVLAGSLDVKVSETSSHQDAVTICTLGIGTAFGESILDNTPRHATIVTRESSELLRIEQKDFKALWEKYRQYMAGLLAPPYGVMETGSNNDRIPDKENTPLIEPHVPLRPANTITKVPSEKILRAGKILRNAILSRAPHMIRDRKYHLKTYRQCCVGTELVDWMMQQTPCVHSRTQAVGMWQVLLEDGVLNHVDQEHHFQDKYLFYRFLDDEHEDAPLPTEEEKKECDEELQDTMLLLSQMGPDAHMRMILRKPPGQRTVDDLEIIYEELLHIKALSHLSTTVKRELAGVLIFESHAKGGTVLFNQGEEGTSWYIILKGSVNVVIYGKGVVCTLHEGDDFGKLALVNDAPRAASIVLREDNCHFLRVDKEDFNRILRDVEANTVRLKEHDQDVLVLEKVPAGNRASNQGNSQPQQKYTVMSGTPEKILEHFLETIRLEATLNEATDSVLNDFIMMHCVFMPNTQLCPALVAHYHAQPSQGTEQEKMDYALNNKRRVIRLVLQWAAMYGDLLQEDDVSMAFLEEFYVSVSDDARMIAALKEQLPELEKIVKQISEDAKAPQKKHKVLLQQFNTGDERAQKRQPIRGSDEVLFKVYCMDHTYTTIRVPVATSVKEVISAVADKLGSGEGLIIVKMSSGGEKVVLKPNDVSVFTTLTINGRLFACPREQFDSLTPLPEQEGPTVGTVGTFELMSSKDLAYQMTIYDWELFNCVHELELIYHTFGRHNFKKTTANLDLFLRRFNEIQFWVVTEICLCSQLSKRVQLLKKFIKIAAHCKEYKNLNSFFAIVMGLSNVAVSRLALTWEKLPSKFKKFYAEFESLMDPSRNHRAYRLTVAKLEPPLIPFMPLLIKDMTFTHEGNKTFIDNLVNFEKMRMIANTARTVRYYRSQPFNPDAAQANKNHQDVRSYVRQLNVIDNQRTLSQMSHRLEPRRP

With `CN(C)c1cc2c(cc1Sc1nc3c(N)nccc3n1CCNCC(C)(C)C)OCO2` the Potency [1] was inconclusive: 3.55 µM [inhibitor, full curve, poor fit], the Potency [2] was active: 459 nM and active: 662 nM and the Potency [3] was inconclusive: 11.9 µM [inhibitor, partial curve].
With `CN(C)C(=S)SSC(=S)N(C)C` the Potency [1] was inconclusive: 1.78 µM [inhibitor, full curve, poor fit], the Potency [2] was inconclusive: 26.6 µM [inhibitor, single point] and the Potency [4] was inconclusive: 23.7 µM [inhibitor, single point].
With `CC(C(O)c1ccccc1)N(C)C/C=C/c1ccccc1` (configuration not stated) the Potency [1] was inconclusive: 8.91 µM [inhibitor, full curve, poor fit], the Potency [2] was inconclusive: 23.7 µM [inhibitor, single point] and the Potency [4] was inconclusive: 29.9 µM [inhibitor, single point].
With `Oc1cc(Cl)ccc1Oc1ccc(Cl)cc1Cl` the Potency [1] was active: 25.1 µM, the Potency [2] was inconclusive: 21.1 µM [inhibitor, single point] and the Potency [4] was inconclusive: 29.9 µM [inhibitor, single point]. For the same molecule, the Potency [5] was inconclusive: 73.9 µM [inhibitor, partial curve] and the Potency [6] was inconclusive: 126 µM [activator, partial curve].
For `CC(=O)O[C@H]1CC[C@H]2[C@@H]3CC[C@H]4CC(=O)C=C(C)[C@]4(C)[C@H]3CC[C@]12C`, the Potency [1] was inconclusive: 8.91 µM [inhibitor, partial curve, poor fit], the Potency [2] was inconclusive: 25.8 µM [inhibitor, single point] and the Potency [4] was inconclusive: 23 µM [inhibitor, single point].
With `CC1=C(O)C(=O)C=C2C1=CC=C1[C@@]2(C)CC[C@@]2(C)[C@@H]3C[C@](C)(C(=O)O)CC[C@]3(C)CC[C@]12C` the Potency [1] was active: 14.1 µM, the Potency [2] was active: 1.48 µM and the Potency [7] was active: 7.94 µM. For the same molecule, the Potency [8] was inconclusive: 22.7 µM [inhibitor, single point].
With `CCCCC1C(=O)NC(=O)N(C2CCCCC2)C1=O` (configuration not stated) the Potency [1] was “inactive”, the Potency [2] was inconclusive: 33.5 µM [inhibitor, single point] and the Potency [4] was inconclusive: 33.5 µM [inhibitor, single point].
For `COC1(CS(=O)c2ccccc2)CCN(CCc2c[nH]c3ccc(F)cc23)CC1` (configuration not stated), the Potency [1] was inconclusive: 39.8 µM [inhibitor, single point], the Potency [2] was inconclusive: 33.2 µM [inhibitor, partial curve, poor fit] and the Potency [4] was inconclusive: 26.3 µM [inhibitor, single point].
With `C[C@]12CCC(=O)C=C1CC[C@@H]1[C@@H]2CC[C@]2(C)C(=O)CC[C@@H]12` the Potency [1] was “inactive”, the Potency [2] was inconclusive: 23.7 µM [inhibitor, single point] and the Potency [4] was inconclusive: 23.7 µM [inhibitor, single point].
With `CC(C)(O)C(=O)Nc1ccc([N+](=O)[O-])c(C(F)(F)F)c1` the Potency [1] was inconclusive: 39.8 µM [inhibitor, single point], the Potency [2] was inconclusive: 23.5 µM [inhibitor, single point] and the Potency [4] was inconclusive: 37.2 µM [inhibitor, single point].
With `CCCC1CCCCN1` (configuration not stated) the Potency [1] was “inactive” and the Potency [4] was “inactive”.
With `Cn1c(CCCC(=O)O)nc2cc(N(CCCl)CCCl)ccc21` the Potency [1] was inconclusive: 39.8 µM [inhibitor, single point], the Potency [2] was inconclusive: 23.7 µM [inhibitor, single point] and inconclusive: 29.5 µM [inhibitor, single point] and the Potency [4] was inconclusive: 29.9 µM [inhibitor, single point] and inconclusive: 29.5 µM [inhibitor, single point].
With `CN1C2CCC(C)(C)C1CC(OC(=O)C(O)(c1cccs1)c1cccs1)C2` (configuration not stated) the Potency [1] was inconclusive: 15.8 µM [inhibitor, partial curve, poor fit], the Potency [2] was inconclusive: 29.9 µM [inhibitor, single point] and the Potency [4] was inconclusive: 29.9 µM [inhibitor, single point].
In the case of `Cc1cc(SCc2sc(-c3ccc(C(F)(F)F)c(F)c3)nc2C)ccc1OCC(=O)O`, the Potency [1] was “inactive”, the Potency [2] was inconclusive: 37.2 µM [inhibitor, single point] and the Potency [9] was inconclusive: 29 µM [inhibitor, single point] and active: 12.8 µM. For the same molecule, the Potency [8] was inconclusive: 10.1 µM [inhibitor, partial curve], the Potency [10] was inconclusive: 26.9 µM [inhibitor, single point] and the Potency [3] was “inactive”.
